± gives the standard deviation of the averaged measurements. The list shows a part of the results.
Tested on: PfAP2-LT AP2 domain (GST-tagged)
Assay: gcPBM binding intensity (ln(normalized median fluorescence intensity)); higher = stronger DNA binding
In short: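 After 1 h on an Agilent 4 × 180k array of primer-extended double-stranded 36-bp intergenic genomic probes and negative controls, bound GST-tagged P. falciparum DNA-binding domains were detected with Alexa488 anti-GST antibody and scanned at 488 nm. The domains had been expressed in E. coli, and binding took place in 1× PBS with 1% milk, 0.2 mg/ml BSA, 0.5% salmon testes DNA and 0.03% Triton X-100. Binding intensity is the highest Masliner-normalised natural-log median intensity across replicate spots of either probe orientation.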

| Sequence | gcPBM binding intensity (ln) |
| --- | --- |
| CATATTATTCTTTTCACACACGCGTTAATAATAATC [CACACA_site3931] | 9.28 ± 0.3 |
| GAACATTTGAAATATGCACACATGTATAAACATACA [CACACA_site5463] | 9.04 ± 0.33 |
| ATACATCGTATATAAGTGCATATTAAGGTCTTAAGA [GTGCAC_site9560] | 8.99 ± 0.34 |
| TATATATGTATCAAGTGTACAGTTTTAAAAAAAAAA [XGTACX_site6011] | 8.64 ± 0.45 |
| ACACACAATACAAAAGTGCATATAATAATTAATCAT | 9.34 ± 0.46 |
| TTGTAATTATTAAACACACACAAAATATATATAATA [CACACA_site2523] | 9.13 ± 0.33 |
| CCATAAAAATATAATACACACATATATATTAACATA [CACACA_site4102] | 9.04 ± 0.42 |
| AGGTGAGCTCAGACTACACACACAAAGAAAAAAATA [CACACA_site8439] | 9.36 ± 0.47 |
| AAAAAAAAAAAAAACACACACATACAGACAAAAATG [CACACA_site83] | 9.7 ± 0.45 |
| CTAAATTATAGATCAGTGCAATTTAATATGAGTCCA | 8.55 ± 0.45 |
| TTATCGACCAATAAAGCATGCAAAAAAAAAAAAAAA [TGCATGCA_site788] | 8.73 ± 0.4 |
| CTACATAAAAAAATATGTACATATATATATATATAT [XGTACX_site667] | 9.58 ± 0.13 |
| CCCACAGACAAAAACACACACAAAGGTGTTCTTATA [CACACA_site4840] | 9.3 ± 0.45 |
| AAGAGAAAAAGAATGAAAGAAAAAAAAAAAAAATAT [CACACA_negctrl_site1527] | 8.65 ± 0.54 |
| TTTTTAAAGGTGATAAAACACACGATTTAGAAATGT [CACACA_site3160] | 8.72 ± 0.54 |
| GTGTTGAATTATGTGCTTTTTTCTTTCTACTCAGTA [XGTACX_negctrl_site464] | 8.98 ± 0.45 |
| TTTAATATAACTATTTGTACATAAAGAATATAAATA [XGTACX_site4594] | 8.34 ± 0.48 |
| TTTTTTTGCCATATTACACACACACGGGTAAACCCC [CACACA_site6874] | 9.52 ± 0.38 |
| TAAATTTTTATTTGTAGTACTATATATATATATATA [XGTACX_site1026] | 8.9 ± 0.12 |
| TAATGAAAATATATAACACACAAAAGTTATAAATAT [CACACA_site1189] | 8.94 ± 0.4 |
| AAAAAATTGACTAATGCACACAATTACAGATATATA [CACACA_site5010] | 9.03 ± 0.38 |
| AAAGATAAAAAAAGTACACACACACCGATATATATA [CACACA_site9006] | 10 ± 0.14 |
| ACTTTAACCTGAACGGTGCATAAAATTTTGGCATTA | 8.71 ± 0.38 |

| Sequence | gcPBM binding intensity (ln) |
| --- | --- |
| AATATATATAAAAAGGGAAAAATATATAAATAGATA [XGTACX_negctrl_site52] | 8.68 ± 0.5 |
| TTTCATTAATCTAATAGTACAGAAAATTGAGAAAAA [XGTACX_site8395] | 8.27 ± 0.41 |
| TCTATTAATTAATATACACACATTATGTATATATAT [CACACA_site2541] | 9 ± 0.37 |
| GTATACAAACATATAAATATAAATGTATTATTTGTT [CACACA_negctrl_site756] | 8.78 ± 0.37 |
| TCGTGCATAAATCATACACACACACCGATATATATA [CACACA_site8767] | 9.59 ± 0.22 |
| AAAAAAAAAAAAAACGCACACATTTTTACAATTCTA [CACACA_site3271] | 9.04 ± 0.42 |
| TTTGTATCCTTTTTGACATGCAACCATTCGGGTACA [TGCATGCA_site506] | 8.59 ± 0.45 |
| TCACAATTTTTTAGTACACACATATAAATATATAAA [CACACA_site1537] | 8.64 ± 0.47 |
| AAAAAATTAATAAAAACACACAAAAAAAATAAACAA [CACACA_site1907] | 8.95 ± 0.57 |
| TTTGTTGTTTGGAGATGTACATATTTTACACTTTTT [XGTACX_site5965] | 9.02 ± 0.48 |
| ATTTCACAGAGACACACACACAATATATTTCCTTTT [CACACA_site7773] | 9.6 ± 0.34 |
| ATAAATATTTACAAAAGTACACATAACTTTAGATAT [XGTACX_site1685] | 8.78 ± 0.5 |
| TAAACATAATATTTAACACACATGAAGATGTATATT [CACACA_site1036] | 8.76 ± 0.39 |
| GTTTTGGCTAACTATTCACACATTAAAATATTACCA [CACACA_site5016] | 8.76 ± 0.44 |
| CACCATGATACATACACACAGACATATACGCATTCA [CACACA_site1008] | 9.46 ± 0.18 |
| ACAATCCACAGGGGCGCACACATATAAGCAGTATAT [CACACA_site3817] | 9.46 ± 0.46 |
| TTTATATTAAAATATTGTACGGACATTATTTTGTAA [XGTACX_site8128] | 8.44 ± 0.38 |
| CATAATATGACATACACACACAAAAAAAAAAAAATA [CACACA_site1285] | 9.47 ± 0.49 |
| AACCGGGCCTAAGATGTAATGCCTTAGCCTATAAAA [CACACA_negctrl_site479] | 8.54 ± 0.56 |
| ATAAAATATATGAAGACACACATAACATCATATTTT [CACACA_site3144] | 9.11 ± 0.33 |
| ACTATTATTAAAAATTGTACTTTCTATAAATTTTTT [XGTACX_site7825] | 8.57 ± 0.54 |
| TACATATTTTGTATATATTATTTATTTTATTAGTTT [XGTACX_negctrl_site85] | 8.6 ± 0.34 |
| TTCTGACTTGTTATAATTTGTATATCCGAAAAAATT [TGCATGCA_negctrl_site456] | 8.47 ± 0.37 |

| Sequence | gcPBM binding intensity (ln) |
| --- | --- |
| ATAACATCAGTATTATGTACATATGTAGGTAAATAA [XGTACX_site7066] | 9.27 ± 0.44 |
| TTTTATTGTTTTTTTTTTTTTTCTTTTTTTTTTTTT [CACACA_negctrl_site1094] | 8.47 ± 0.61 |
| CGTTATTATACACATACACACAGGAATAAAAAATTA [CACACA_site7373] | 9.06 ± 0.42 |
| AGAAACATATGGTAGTGTACTGTAAATTTATTCTTT [XGTACX_site8602] | 8.87 ± 0.49 |
| ATTTTGTGTAGTGATGCATGTTATATATATATTTGA [TGCATGCA_site422] | 9.01 ± 0.35 |
| TTTTATCAAATATTTATTTTATACATAAATATTTAT [XGTACX_negctrl_site528] | 8.66 ± 0.5 |
| CTTTTTATTTAGGAGGTGCATGTAATACGGAACATA | 8.49 ± 0.3 |
| TTTTGTTTAATATTCACACATATATATTTTTTATTT [CACACA_site5496] | 8.8 ± 0.49 |
| CATACTGTTATAAAATGTACGCATATACACACACAT [XGTACX_site7256] | 9.5 ± 0.27 |
| GATCTATACATGGGGACACACATCACTCTATATTTT [CACACA_site3408] | 9.17 ± 0.42 |
| ATTTGTTATATATTCTTTTATGTTAATAATTCGAAT [CACACA_negctrl_site378] | 8.7 ± 0.45 |
| TATGAATAAAAAAGAAGTACAAATTATATGAACGCA [XGTACX_site3018] | 8.96 ± 0.52 |
| AAAAAATACAAACACACACACACACCCATATATATA [CACACA_site3560] | 10.21 ± 0.057 |
| ATTATATTAAAATACACACCCAAATATTAAAAAGAT [CACACA_site5613] | 9.16 ± 0.24 |
| TGATAAAATGGGGAAATTCATTATATCATATCTTGG [CACACA_negctrl_site789] | 8.71 ± 0.35 |
| TTGGATAAAAAATATGTACACACATATAGATATCTA [CACACA_site8862] | 8.86 ± 0.44 |
| TTTGAAATATTAAATGCATGTTAAAACATAAAAATG [TGCATGCA_site680] | 8.55 ± 0.33 |
| TTTCTTCTTCTATTGTGTACGTAAAAAAAAAAAAAA [XGTACX_site772] | 8.07 ± 0.4 |
| GGTAATTTCCTTTTTTGTACTCATAGAAGGATAATA [XGTACX_site89] | 8.53 ± 0.37 |
| TAGTATCCAAGAAAAAGTACTTATTTTAATTTTTTA [XGTACX_site6243] | 8.3 ± 0.57 |
| TCAGATATATATATATAAATATATATTTTGAAATGT [CACACA_negctrl_site686] | 8.8 ± 0.46 |
| AATATTTATAAAGACACACAAACAAAAAGGATAAAA [CACACA_site2985] | 9.02 ± 0.49 |
| TCATTTAAGTAGACGCGTACGGAAATTACGAATCCT [XGTACX_site144] | 8.88 ± 0.45 |

| Sequence | gcPBM binding intensity (ln) |
| --- | --- |
| ATTATTATATTTATATGTACATAGAAAAAATTAAAT [XGTACX_site2058] | 8.58 ± 0.49 |
| AAAGTGGCCATATATTTTTTTTTTTTTTTCCTTATT [CACACA_negctrl_site485] | 8.52 ± 0.48 |
| AAAAATAAAGGATATACACACTAATTATATATATAT [CACACA_site5550] | 9.04 ± 0.39 |
| AAGACTGCACTTTAAGCACACAAATATATTTTTTTT [CACACA_site8337] | 8.86 ± 0.38 |
| AAGAAAAAAATTTAATTAAATGAAATTTTTGAATTA [TGCATGCA_negctrl_site25] | 8.15 ± 0.52 |
| AAATTAATATATAAAAGTACCCATATATTTAATATA [XGTACX_site3551] | 8.52 ± 0.43 |
| TTTTTTTTTTGTTGAGTGCAATTATTTGTAAGAAAA | 8.13 ± 0.34 |
| TATAACAAAATATTCACACATATAAGTAAATAAAGG [CACACA_site5777] | 8.92 ± 0.54 |
| TCTCCACCTCTCTTGGTGCGTTATACCCTCGAGGCT | 9.05 ± 0.61 |
| AGTTTGTTTTTTTTTTTTTTTTCCTGTCACAAACAA [CACACA_negctrl_site1093] | 8.78 ± 0.47 |
| GTACGTTACATAAATGTGCACATATTATATGCGAAG | 9.09 ± 0.35 |
| GTCATATATATATGTACACACATATATATATTTATA [CACACA_site1459] | 8.96 ± 0.35 |
| TCAAAGCACCCATACACACACATATATATATATATA [CACACA_site4317] | 10.2 ± 0.18 |
| TGAGTTACATACTAATGTACACAACAAAAAAAAAAA [XGTACX_site2390] | 8.73 ± 0.49 |
| TTTTTTTGAACATATACACACTCTAAACTTATACAT [CACACA_site3917] | 8.79 ± 0.56 |
| AAAGGTTTATATGATACACACATAAGTGATCAGGTT [CACACA_site190] | 9 ± 0.4 |
| AAAAACTAATCTTTAACATGCAACCGTTTATACATA [TGCATGCA_site363] | 8.55 ± 0.43 |
| AAAAATTATGGACACACACACATATATATATATATT [CACACA_site4717] | 9.8 ± 0.11 |
| AATAAAATAAAATACACACATACATACATACAAATG [CACACA_site2438] | 9.52 ± 0.35 |
| GGTATACGCAAGTATACACACATATATATATATATA [CACACA_site3240] | 10.01 ± 0.042 |
| TAATTTATGACACGCGCACACATATATATATAGTAA [CACACA_site4249] | 9.2 ± 0.28 |

Reference: the supplement of paper PMC11417369
